Experimental data taken from EP4775595A1 (Beijing Tuo Jie Biopharmaceutical Co. Ltd., dated 2026).

T1: hTSHR-ECD-avi-his (human TSHR extracellular region, 6 amino acid mutations) (human)
T1 chain: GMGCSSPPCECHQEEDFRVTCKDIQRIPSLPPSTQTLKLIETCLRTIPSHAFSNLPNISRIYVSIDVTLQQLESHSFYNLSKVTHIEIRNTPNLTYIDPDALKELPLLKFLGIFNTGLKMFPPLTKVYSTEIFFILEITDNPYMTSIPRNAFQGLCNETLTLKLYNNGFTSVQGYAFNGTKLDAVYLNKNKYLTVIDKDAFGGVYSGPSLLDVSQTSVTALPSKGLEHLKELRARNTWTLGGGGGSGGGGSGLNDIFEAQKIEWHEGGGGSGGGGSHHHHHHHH

T2: full-length rat TSHR on transiently transfected HEK293 cells (rat, UniProt P21463 22-764)
T2 sequence (looked up): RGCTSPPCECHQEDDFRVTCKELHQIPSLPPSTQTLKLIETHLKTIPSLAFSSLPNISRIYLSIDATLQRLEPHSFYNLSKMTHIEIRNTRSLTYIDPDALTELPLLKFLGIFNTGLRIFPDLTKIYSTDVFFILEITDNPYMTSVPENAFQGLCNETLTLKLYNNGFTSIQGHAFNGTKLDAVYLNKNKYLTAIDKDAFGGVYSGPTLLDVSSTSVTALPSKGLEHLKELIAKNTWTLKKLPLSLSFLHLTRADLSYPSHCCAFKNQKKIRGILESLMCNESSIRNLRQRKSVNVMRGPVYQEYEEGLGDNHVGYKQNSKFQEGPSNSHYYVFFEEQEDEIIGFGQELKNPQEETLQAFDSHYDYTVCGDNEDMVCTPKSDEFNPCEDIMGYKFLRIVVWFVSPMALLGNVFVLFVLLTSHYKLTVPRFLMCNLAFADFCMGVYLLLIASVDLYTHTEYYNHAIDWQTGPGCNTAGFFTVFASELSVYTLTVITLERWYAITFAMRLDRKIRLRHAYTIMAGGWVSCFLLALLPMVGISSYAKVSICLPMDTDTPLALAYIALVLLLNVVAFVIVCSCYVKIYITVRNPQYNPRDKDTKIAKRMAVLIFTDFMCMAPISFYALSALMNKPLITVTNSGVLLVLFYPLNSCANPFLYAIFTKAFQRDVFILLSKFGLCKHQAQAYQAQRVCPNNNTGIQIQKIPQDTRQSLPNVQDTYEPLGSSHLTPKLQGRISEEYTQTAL


Assays:
[1] = target: T3, hIGF-1R-ECD-avi-his (human IGF-1R extracellular region) (human, UniProt P08069 31-935); test: SPR (Biacore T200), antigen captured by anti-His antibody on CM5 chip, antibody as analyte
T3 construct: It was captured on the chip through its His tag
T3 sequence (P08069 31-1367): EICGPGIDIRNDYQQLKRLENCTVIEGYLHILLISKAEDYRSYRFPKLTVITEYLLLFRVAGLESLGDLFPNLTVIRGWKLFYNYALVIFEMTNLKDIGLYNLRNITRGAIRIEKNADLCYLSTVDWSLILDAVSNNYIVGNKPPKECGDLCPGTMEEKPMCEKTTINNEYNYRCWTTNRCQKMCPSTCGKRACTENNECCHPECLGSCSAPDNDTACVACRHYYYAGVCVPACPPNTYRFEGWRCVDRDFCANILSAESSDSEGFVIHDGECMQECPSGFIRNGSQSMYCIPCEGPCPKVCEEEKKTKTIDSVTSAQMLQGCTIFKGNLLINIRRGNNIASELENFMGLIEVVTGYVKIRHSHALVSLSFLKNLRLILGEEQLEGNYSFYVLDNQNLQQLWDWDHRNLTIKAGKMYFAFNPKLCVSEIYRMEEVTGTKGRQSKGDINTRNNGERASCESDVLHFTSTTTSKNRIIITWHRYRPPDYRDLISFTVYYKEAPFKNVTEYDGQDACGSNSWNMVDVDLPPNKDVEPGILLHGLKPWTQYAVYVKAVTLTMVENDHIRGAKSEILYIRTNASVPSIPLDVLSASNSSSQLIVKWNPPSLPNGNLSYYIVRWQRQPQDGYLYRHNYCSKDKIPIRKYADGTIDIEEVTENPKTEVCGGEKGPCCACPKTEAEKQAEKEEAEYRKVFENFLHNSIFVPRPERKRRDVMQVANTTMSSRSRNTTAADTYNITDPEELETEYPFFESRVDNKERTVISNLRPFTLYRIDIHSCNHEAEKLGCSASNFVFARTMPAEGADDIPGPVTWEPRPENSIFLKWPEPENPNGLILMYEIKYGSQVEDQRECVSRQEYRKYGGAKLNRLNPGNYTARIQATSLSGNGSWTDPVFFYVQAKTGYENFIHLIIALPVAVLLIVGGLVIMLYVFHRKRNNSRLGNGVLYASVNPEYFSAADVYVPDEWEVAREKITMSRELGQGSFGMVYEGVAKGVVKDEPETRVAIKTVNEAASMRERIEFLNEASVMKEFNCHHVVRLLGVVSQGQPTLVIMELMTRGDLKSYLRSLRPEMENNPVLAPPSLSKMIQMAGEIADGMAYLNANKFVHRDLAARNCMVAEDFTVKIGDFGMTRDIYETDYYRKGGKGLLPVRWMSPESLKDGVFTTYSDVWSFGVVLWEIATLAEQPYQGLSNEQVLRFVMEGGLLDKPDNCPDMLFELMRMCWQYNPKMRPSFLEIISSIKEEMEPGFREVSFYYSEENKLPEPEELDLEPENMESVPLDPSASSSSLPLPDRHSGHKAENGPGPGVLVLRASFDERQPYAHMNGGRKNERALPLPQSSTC

[2] = target: human IGF-1R on human non-small cell lung cancer cells (A549) (human, UniProt P08069 31-1367); test: cell-based or functional assay
[3] = target: T4, mouse IGF-1R (Acro, Cat. IGR-M5223) (mouse, UniProt Q60751 31-936, limits assumed); test: SPR (Biacore T200), antigen captured by anti-His antibody on CM5 chip, antibody as analyte
T4 construct: Bought reagent; also called murine IGF-1R

[4] = target: mouse IGF-1R on mouse myoblasts (C2C12) (mouse, UniProt Q60751 31-1373); test: cell-based or functional assay
[5] = target: T1, hTSHR-ECD-avi-his (human TSHR …); test: SPR (Biacore T200), antibody captured on Protein A chip, human TSHR as analyte
[6] = target: T2, full-length rat TSHR on transiently …; test: cell-based or functional assay
[7] = target: full-length mouse TSHR on transiently transfected HEK293 cells (mouse, UniProt P47750 22-764); test: cell-based or functional assay
Chain of UniProt P47750 (P47750 22-764): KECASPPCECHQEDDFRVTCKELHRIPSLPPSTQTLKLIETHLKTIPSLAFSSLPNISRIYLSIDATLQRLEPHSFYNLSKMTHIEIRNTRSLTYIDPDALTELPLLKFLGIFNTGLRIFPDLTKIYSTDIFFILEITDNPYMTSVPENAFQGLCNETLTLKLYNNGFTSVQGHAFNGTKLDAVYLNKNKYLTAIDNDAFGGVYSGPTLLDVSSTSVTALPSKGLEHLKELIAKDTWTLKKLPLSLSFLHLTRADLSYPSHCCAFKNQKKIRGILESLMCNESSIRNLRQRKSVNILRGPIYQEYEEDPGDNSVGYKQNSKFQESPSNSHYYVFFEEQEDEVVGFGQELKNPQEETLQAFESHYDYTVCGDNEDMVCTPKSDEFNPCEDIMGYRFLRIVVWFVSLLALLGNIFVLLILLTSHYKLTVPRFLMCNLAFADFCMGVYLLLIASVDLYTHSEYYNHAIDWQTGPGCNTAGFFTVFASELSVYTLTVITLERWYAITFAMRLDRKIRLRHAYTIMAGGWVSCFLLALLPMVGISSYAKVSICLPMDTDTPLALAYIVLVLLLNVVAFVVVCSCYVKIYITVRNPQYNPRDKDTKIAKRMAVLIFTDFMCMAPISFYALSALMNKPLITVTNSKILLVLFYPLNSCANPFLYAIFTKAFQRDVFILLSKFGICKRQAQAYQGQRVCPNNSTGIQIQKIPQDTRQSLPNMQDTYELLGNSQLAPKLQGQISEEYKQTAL

Kd [1]	koff [1]	kon [1]	IC50 (nM), inhibition of IGF1-induced pAKT signaling in A549 cells [2]	Kd [5]	koff [5]	kon [5]	Binder	further results
0.00211 nM	1.87e-05 s⁻¹	8.87e+06 M⁻¹ s⁻¹	0.194 nM				IG05-hu5-1-IgG1 (Fc fusion, VHH fused directly to human IgG1 Fc) EVQLVESGGGLVQPGGSLRLSCAASGFTFGTFGMAWFRQAPGKEREGVSAISASSGRTYYADSVKGRFTISRDNSKNTLYLQMNSLRAEDTAVYYCAVRSKQGAGYGFWYEGRLYGYWGQGTLVTVSS[in this place human IgG1 Fc with changes]	
0.0306 nM	0.000155 s⁻¹	5.07e+06 M⁻¹ s⁻¹	0.898 nM				IG06-IgG1 (Fc fusion, VHH fused directly to human IgG1 Fc) QVQLVESGGGSVQAGGSLRLSCAASRYIVSTRCLGWVRQAPGNEREEIATIDTAGRPTYADSVKGRFTISKDGAKNFLYLQMNSLKPEDTAMYYCAAASSDNCRYFPSNLGQGTQVTVSS[in this place human IgG1 Fc with changes]	Kd [3]: 0.0943 nM; koff [3]: 0.000496 s⁻¹; kon [3]: 5.27e+06 M⁻¹ s⁻¹; IC50 (nM), inhibition of IGF1-induced pAKT signaling in C2C12 cells [4]: 62.2 nM
				5.54 nM	0.000988 s⁻¹	178000 M⁻¹ s⁻¹	CB16-hu2-IgG1 (Fc fusion, VHH fused directly to human IgG1 Fc) EVQLLESGGGLVQPGGSLRLSCAGPGYTSSCMGWFRQAPGKERTGVAAIYIGGRGTDYADSVKGRFTISQDNAKNTLYLQMNSLRAEDTAVYYCWAGIEYDCYSGHWRDWAFSRERGFWGQGTLVTVSS[in this place human IgG1 Fc with changes]	
				8.14 nM	0.00136 s⁻¹	167000 M⁻¹ s⁻¹	CB16-hu3-IgG1 (Fc fusion, VHH fused directly to human IgG1 Fc) EVQLLESGGGLVQPGGSLRLSCAGPGYTSSCMGWFRQAPGKERTGVSAIYIGGRGTDYADSVKGRFTISQDNSKNTLYLQMNSLRAEDTAVYYCWAGIEYDCYSGHWRDWAFSRERGFWGQGTLVTVSS[in this place human IgG1 Fc with changes]	IC50, inhibition of bovine TSH-stimulated cAMP production in HEK293-rat TSHR cells [6]: 3.66 nM; IC50, inhibition of bovine TSH-stimulated cAMP production in HEK293-mouse TSHR cells [7]: 5.94 nM
				46 nM	0.00657 s⁻¹	143000 M⁻¹ s⁻¹	CB16-hu1-IgG1 (Fc fusion, VHH fused directly to human IgG1 Fc) EVQLLESGGGLVQPGGSLRLSCAGPGYTSSCMGWFRQAPGKEREGVSAIYIGGRGTDYADSVKGRFTISQDNSKNTLYLQMNSLRAEDTAVYYCWAGIEYDCYSGHWRDWAFSRERGFWGQGTLVTVSS[in this place human IgG1 Fc with changes]	
				5.67 nM	0.00107 s⁻¹	188000 M⁻¹ s⁻¹	CB16-IgG1 (Fc fusion, VHH fused directly to human IgG1 Fc) EVQLVESGGGPVQAGGSLRLSCAGPGYTSSCMGWFRQAPGKERTGVAAIYIGGRGTDYADSVKGRFTISQDNAKNTLYLQMNSLKPEDTAMYYCWAGIEYDCYSGHWRDWAFSRERGFWGQGTQVTVSS[in this place human IgG1 Fc with changes]	
